Experimental data as given in PMC12136788.
The other results are listed elsewhere or left out.

T1: UNK ZnF1-3 (human, UniProt Q9C0B0 31-174)
T1 sequence: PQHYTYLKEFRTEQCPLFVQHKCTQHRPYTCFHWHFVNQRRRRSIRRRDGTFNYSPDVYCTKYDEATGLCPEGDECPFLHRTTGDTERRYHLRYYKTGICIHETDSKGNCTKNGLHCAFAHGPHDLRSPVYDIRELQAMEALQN

B1: 31604843_31604963_1455_CDS_ENSG00000170456_ENST00000546299|human|control|control (ssRNA)
RNA: GGGAGUUCUACAGUCCGACGAUCCCACAAAAGGAAAACUAUGGUUCUUUUUACUUUGUCAAAGUUCUGCAUCUGUUCCCGGUUGGUCAGCCAGGAUUCCAUGUCCUGGGCAGUCUGAAUGACAAAUGCUUCGUAAUCUGCAAACAACAGAGGAUUGAGCAUCA
B2: chr9:95013113:95013114:-_ENSG00000196305_ENST00000443024|hu_hu|hu_hu_hu_mus_False|18_88 (ssRNA)
RNA: GGGAGUUCUACAGUCCGACGAUCCUCAGUCAGAAAGGGCGUGUAAGGAGCCAUAAGUCUGCACAGAGAAAGCAGGACACUGAACAGUGUCUCCAGAGCCAUGACACAGUCUUCCACCCCAUUUUCACCCUUUAACCUCCUCCUCAACAGAGGAUUGAGCAUCA
B3: chr1:229634031:229634032:-_ENSG00000069248_ENST00000261396|hu_mus|FALSE|FALSE (ssRNA)
RNA: GGGAGUUCUACAGUCCGACGAUCCUGGUGAAUCUUUCCUGAGCUUUCAGGAAUCAAUCGAACCAACUGGCUCCCCACGGAGGACAGGAUGAAACUUCCUCCCUGCACUGCUGUCAGGAACCUGCACAUCUUCUCGCCUCCCAACAACAGAGGAUUGAGCAUCA
B4: 87797487_87800839_256_3pUTR_ENSMUSG00000020483_ENSMUST00000020775|mouse|control|control (ssRNA)
RNA: GGGAGUUCUACAGUCCGACGAUCUGCCUUCCGGUCAGACAUCGUGACACGUCACGCAGGCGAGUCCGCACAGGCCCCUGGGGAGCAGCGCUGGGCUGAAGCAAAGCUCGAGCAGGGGCGGUGUCCCCUGGGCUCGUCCUGCAGCAACAGAGGAUUGAGCAUCA
B5: chr1:58468927:58468928:-_ENSMUSG00000026034_ENSMUST00000148330|mus_mus|mus_mus_mus_hu_False|8_18 (ssRNA)
RNA: GGGAGUUCUACAGUCCGACGAUCAAUUACUGAAAAAGAUGUUCAUUACCUUAGCUAUGUACUUAAUGAACCAAAUUACCCAAACAAAAUAAACAUGGCAAUAUAAAAAUGUUAAGAAAAUAACUUAAUUAAAAGCUUAACUUACAACAGAGGAUUGAGCAUCA
B6: chr1:46159212:46159213:+_ENSG00000159596_ENST00000372025|hu_mus|hu_hu_hu_mus_True|1_48 (ssRNA)
RNA: GGGAGUUCUACAGUCCGACGAUCUCUGAUCCCUCCCAAGAAAGCUAGGAAACCGGCUCCAUAAGCCAUCUGAGUGAAAGCUAGGACGGGAAUAUAAGACUUUGUUAUUACCAUGAGAAGUGGGGGAGCAGUAAAGGGGAUUAGCAACAGAGGAUUGAGCAUCA
B7: chr6:11583160:11583161:+_ENSG00000205269_ENST00000379426|hu_mus|FALSE|FALSE (ssRNA)
RNA: GGGAGUUCUACAGUCCGACGAUCUUAAAAAUCAAUAGUAUACACUAUUUACAACCUGUUAGGUAUUACAUAUAAACAUAGUUGAAAUAAUCCUUCAGAAUGAAAUUGUUUUAUGUAAACAUGCAACACACACACUCUUACAGUCAACAGAGGAUUGAGCAUCA
B8: chr13:100193275:100193276:-_ENSMUSG00000052727_ENSMUST00000064762|mus_mus|motif|central (ssRNA)
RNA: GGGAGUUCUACAGUCCGACGAUCAGGCUAGAAAUUGUUUCUCUUCACGUGUGGACCAGCCUAACAGCUCCCAUUAAAUUACGGUCUUGUGUGUAUUGAGCUUGUCUGAUGAAGUGAGAAGCAAGUGGGCUUACAGGCAACGAACAACAGAGGAUUGAGCAUCA
B9: chr1:39494564:39494565:+_ENSG00000168653_ENST00000372967|hu_hu|hu_hu_hu_mus_True|58_108 (ssRNA)
RNA: GGGAGUUCUACAGUCCGACGAUCAUGUGCACGUCUCAUCGUUUUGUACCGAAGCAAGCACUCUUCGAAGUCAUCGAAUUCUAUCUUGCACUCCUUUUUCGCCCGGGUCCCACCGAUCCCGUGUGCACACUCUAUCCACUCUUUCAACAGAGGAUUGAGCAUCA
B10: chr6:114267272:114267273:-_ENSG00000196591_ENST00000368632|hu_hu|FALSE|FALSE (ssRNA)
RNA: GGGAGUUCUACAGUCCGACGAUCACAUCGAGCAACAUUACGGAUUGUGUAGCCACCUCCUCCAAGCAUCAGUAAUGGUAAGUUAAAAGUUUUUACAACUUCUACACAUUUAGCAUGACCUUUGACUGUUAGAUUGAAACAACCCAACAGAGGAUUGAGCAUCA
B11: chr4:82449818:82449819:-_ENSMUSG00000028403_ENSMUST00000030110|mus_mus|FALSE|FALSE (ssRNA)
RNA: GGGAGUUCUACAGUCCGACGAUCUGUAAUAAAUGUUUUGUUUUGUAGUAAAAUAGUAUUUUAAGUAAGUUUUUAUAAUGCUAACAAGAUAAGUUGCCAAAAUAAGGUUUAAAGUAAAAUACAUGAAACAGCUUAAACUAAUCGCAACAGAGGAUUGAGCAUCA
B12: chr1:60041781:60041782:+_ENSMUSG00000041040_ENSMUST00000036540|mus_hu|mus_mus_mus_hu_False|68_88 (ssRNA)
RNA: GGGAGUUCUACAGUCCGACGAUCAAGUUUACAAUAGUAAAGUAAAUCAAAUUUAGUCAAAUUUUCUUUACUUUAGUUUCACAAAAGAAAAUCUUUAUAACCCAGUCCUAGUCUUGGACAUAGUGAAAGCUAUAAAUUCUGACUCAACAGAGGAUUGAGCAUCA
B13: chr4:44140560:44140561:-_ENSMUSG00000035696_ENSMUST00000045793|mus_mus|FALSE|FALSE (ssRNA)
RNA: GGGAGUUCUACAGUCCGACGAUCUUAAGUAUUUCUGACACUAACACAAACCUAGGGGCAACAGAAUGUAGGUCAAAUCCUAUUUGUCUAACUAGGUAGAGGCAACAGUGUCUGGAAGAGGACAAAAUUGUGCUUCUGUGUGGACAACAGAGGAUUGAGCAUCA
B14: chr7:135333399:135333400:+_ENSG00000155561_ENST00000285968|hu_mus|motif|central (ssRNA)
RNA: GGGAGUUCUACAGUCCGACGAUCGUCCAUAUAUAAAGAAAGAAAUAGCAAAAUAUCUUUUGGUCAUAAUUUAGAAAUAAAGUCAUCGGUAAAAAAGAGGUGGUUCUCCUCAGUUCAUCUCUUCCACGGAAGAGAGUCAGUUCUCAACAGAGGAUUGAGCAUCA

target: T1, UNK ZnF1-3; assay: nsRBNS (natural sequence RNA bind-n-seq); RBNS binding buffer (assumed for nsRBNS): 25 mM Tris pH 7.5, 150 mM KCl, 3 mM MgCl2, 0.01% Triton X-100, 500 ug/ml BSA, 20 U/ml SUPERase-In, 4 C; UNK is unkempt and MSI1 is Musashi-1; names of the RNAs are library labels; protein concentration not given here; high values mean tight binding

Binder	binding signal [enrichment R]
B1	0.679
B2	1.3
B3	0.798
B4	0.481
B5	0.866
B6	1.45
B7	0.509
B8	0.899
B9	0.55
B10	1.67
B11	1.59
B12	0.453
B13	1.84
B14	1.75
